{"source": "PubChem BioAssay AID504339", "about": "(National Center for Advancing Translational Sciences (NCATS), 2011)", "note": "The whole screen tested about 390,000 compounds, of which about 17,000 (4.4%) were called active. This list was built around the results that the source calls inconclusive (neither active nor inactive); the mix of calls is not that of the screen. Calls come from the whole dose curve; as a rule, active = well fitted inhibition curve with a large enough effect; inconclusive = small, poorly fitted or top-dose-only effect; inactive = no such curve, though single readings can be large or run the other way. Where the call is inconclusive, the potency comes from a doubtful curve fit. % is set by controls: 0 for no effect and ±100 for the full control effect; potency is the fitted concentration of half-maximal effect; tags give direction and shape of the fitted curve."}
{"molecular_target": "Lysine-specific demethylase 4A (Homo sapiens) (UniProt O75164)", "sequence (O75164 whole entry, looked up, the tested form may be a part)": "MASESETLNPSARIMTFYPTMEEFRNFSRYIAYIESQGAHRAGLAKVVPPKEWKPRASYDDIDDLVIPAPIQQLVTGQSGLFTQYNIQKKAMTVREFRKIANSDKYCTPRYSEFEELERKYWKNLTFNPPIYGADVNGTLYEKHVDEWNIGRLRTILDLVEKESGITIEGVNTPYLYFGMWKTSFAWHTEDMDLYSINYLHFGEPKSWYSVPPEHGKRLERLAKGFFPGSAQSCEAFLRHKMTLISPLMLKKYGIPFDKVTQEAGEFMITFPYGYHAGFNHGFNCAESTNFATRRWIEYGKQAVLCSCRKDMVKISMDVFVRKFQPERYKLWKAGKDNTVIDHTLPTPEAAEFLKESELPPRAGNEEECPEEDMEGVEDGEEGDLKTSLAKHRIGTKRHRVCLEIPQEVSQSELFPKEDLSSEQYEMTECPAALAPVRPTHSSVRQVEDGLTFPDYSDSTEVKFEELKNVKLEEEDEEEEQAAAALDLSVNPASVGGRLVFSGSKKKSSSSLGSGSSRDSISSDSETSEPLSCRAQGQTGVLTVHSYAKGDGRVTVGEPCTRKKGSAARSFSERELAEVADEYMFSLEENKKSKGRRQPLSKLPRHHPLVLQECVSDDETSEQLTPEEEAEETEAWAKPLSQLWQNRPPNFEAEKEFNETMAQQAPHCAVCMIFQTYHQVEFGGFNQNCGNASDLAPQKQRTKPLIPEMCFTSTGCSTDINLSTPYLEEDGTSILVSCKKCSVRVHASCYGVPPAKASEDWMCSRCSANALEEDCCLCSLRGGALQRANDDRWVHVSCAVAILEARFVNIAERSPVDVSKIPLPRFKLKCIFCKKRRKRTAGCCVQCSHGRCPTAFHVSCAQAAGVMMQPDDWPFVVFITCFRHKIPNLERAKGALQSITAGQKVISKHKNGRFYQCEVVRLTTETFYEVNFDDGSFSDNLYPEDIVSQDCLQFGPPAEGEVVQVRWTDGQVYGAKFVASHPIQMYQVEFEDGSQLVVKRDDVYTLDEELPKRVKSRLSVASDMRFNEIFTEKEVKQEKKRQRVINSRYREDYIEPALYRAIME", "assay": "qHTS Assay for Inhibitors of JMJD2A-Tudor Domain; note: nearly all actives have a fitted effect of over 50% in size", "settings": "AlphaScreen JMJD2A-Tudor / H3K4me3 peptide binding; activity change, negative = inhibition: at 114 µM (top of the series)"}
{"smiles": "NC(=S)n1[nH]c(-c2ccc([N+](=O)[O-])cc2)c(N=Nc2ccccc2[N+](=O)[O-])c1=O", "Potency": "inconclusive: 50.1 µM [inhibitor, partial curve]"}
{"smiles": "Cc1ccc(-n2cnc3cc(C(=O)NCCC4=CCCCC4)ccc32)c(C)c1", "Potency": "inconclusive: 39.8 µM [inhibitor, full curve, poor fit]"}
{"smiles": "CCCOc1ccc(NC(=O)CC2C(=O)N(CC)C(=S)N2CCCN2CCN(Cc3ccccc3)CC2)cc1", "note": "(stereo unspecified)", "Potency": "inconclusive: 35.5 µM [inhibitor, partial curve]"}
{"smiles": "COc1ccc(O)c(-c2cc(-c3ccc(F)cc3)n[nH]2)c1", "Potency": "inconclusive: 50.1 µM [inhibitor, single point]"}
{"smiles": "CCOC(=O)c1sc(NC(=O)CNCc2ccccn2)c(C(=O)OCC)c1C", "Potency": "inconclusive: 56.2 µM [inhibitor, partial curve, poor fit]"}
{"smiles": "CC(=O)c1ccc(OCc2cc(C(=O)N(C)C(C)c3nccs3)no2)cc1", "note": "(stereo unspecified)", "activity change, negative = inhibition": "inactive: -16.2%"}
{"smiles": "COc1ccccc1/C=C/CN1CCCC(CO)(Cc2cccc(Cl)c2)C1", "note": "(stereo unspecified)", "Potency": "inconclusive: 2.82 µM [inhibitor, full curve, poor fit]"}
{"smiles": "CCc1cccc(CC)c1NC(=S)NCCc1c(C)[nH]c2ccccc12", "Potency": "active: 44.7 µM"}
{"smiles": "COC(=O)C1C(=O)C2=C(CC1C)NC(=O)CC2c1ccc(O)c(OC)c1", "note": "(stereo unspecified)", "Potency": "inconclusive: 89.1 µM [inhibitor, single point]"}
{"smiles": "CCOc1ccc(C2Nc3cccc4cccc(c34)N2)cc1OC", "Potency": "inconclusive: 56.2 µM [inhibitor, partial curve]"}
{"smiles": "Cc1ccc(/C=C/C(=O)NCC2COc3ccccc3O2)o1", "note": "(stereo unspecified)", "Potency": "active: 56.2 µM"}
{"smiles": "O=C(Nc1ccc(Nc2ccccc2)cc1)c1c(Cl)cccc1Cl", "Potency": "inconclusive: 25.1 µM [inhibitor, full curve]"}
{"smiles": "S=c1[nH]nc(Cc2cccc3ccccc23)n1-c1ccccc1", "Potency": "active: 79.4 µM"}
{"smiles": "O=c1c2c(-c3ccccc3)csc2ncn1/N=C/c1cn(-c2ccccc2)nc1-c1cccs1", "Potency": "inconclusive: 31.6 µM [inhibitor, single point]"}
{"smiles": "C/C(=N\\NC(=O)c1nnn(-c2nonc2N)c1CN1CCCCC1)c1ccccc1O", "Potency": "inconclusive: 15.8 µM [inhibitor, full curve]"}
{"smiles": "CCOc1cc(NC(=O)c2ccco2)c(OCC)cc1NC(=O)Cc1cccc(OC)c1", "Potency": "inconclusive: 56.2 µM [inhibitor, partial curve]"}
{"smiles": "N#Cc1ccccc1NC(=O)CSc1nc(-c2ccccc2)cc(C(F)(F)F)c1C#N", "activity change, negative = inhibition": "inactive: 0.98%"}
{"smiles": "COc1cccc(CNC(=O)CCCc2cn(C)c3ccccc23)c1", "Potency": "inconclusive: 44.7 µM [inhibitor, partial curve]"}
{"smiles": "C=CCOC(=O)C1=C(C)NC(SCC(=O)N(CC)CC)=C(C#N)C1c1ccccc1", "note": "(stereo unspecified)", "activity change, negative = inhibition": "inactive: -31%"}
{"smiles": "CC(=O)c1ccc(S(=O)(=O)Nc2ccc(-c3cn4c(C)csc4n3)cc2)cc1", "Potency": "inconclusive: 56.2 µM [inhibitor, partial curve]"}
{"smiles": "COc1cccc(OC)c1C(=O)N[C@@H]1C(=O)N2[C@@H]1SC(C)(C)[C@@H]2C(=O)O", "Potency": "inconclusive: 25.1 µM [inhibitor, single point]"}
{"smiles": "Cc1ccc(C)c(S(=O)(=O)NCc2ccc(C(=O)N3CC(C)OC(C)C3)cc2)c1", "note": "(stereo unspecified)", "Potency": "inconclusive: 89.1 µM [inhibitor, single point]"}
{"smiles": "C=C(C)C(=O)Nc1cccc(C2=NOC3(C2)C[C@@H](C(N)=O)N(C(=O)[C@H]2CCC(=O)N2)C3)c1", "note": "(stereo partly specified)", "Potency": "inconclusive: 100 µM [inhibitor, partial curve, poor fit]"}
{"smiles": "COCCNC(=S)N(CCc1c(C)[nH]c2ccc(C)cc12)Cc1ccco1", "Potency": "inconclusive: 31.6 µM [inhibitor, partial curve, poor fit]"}
{"smiles": "COc1ccc(Nc2c(-c3ccc(C)cc3)nc3cnccn23)cc1", "Potency": "active: 44.7 µM"}
{"smiles": "Cc1sc2ccccc2[n+]1CC(=O)O", "Potency": "inconclusive: 17.8 µM [inhibitor, partial curve, poor fit]"}
{"smiles": "CCOC(=O)N1CCN(c2ncc(C(F)(F)F)cc2Cl)CC1", "activity change, negative = inhibition": "inactive: 21.3%"}
{"smiles": "COc1ccc(OC)c(NC(=O)C(C)n2c(=O)cc(C)c3c(C)nn(-c4ccccc4)c32)c1", "note": "(stereo unspecified)", "activity change, negative = inhibition": "inactive: -5%"}
{"smiles": "CCN1C(C)=C(C)S/C1=C1\\SC(=S)N(N)C1=O", "activity change, negative = inhibition": "inactive: -0.676% [at 57.1 µM]"}
{"smiles": "CCOc1ccc(-c2nnn(CCC#N)n2)cc1OC", "Potency": "inconclusive: 15.8 µM [inhibitor, full curve, poor fit]"}
{"smiles": "Cc1cccc(OCc2nc(C#N)c(N3CC(C)CC(C)C3)o2)c1", "note": "(stereo unspecified)", "Potency": "inconclusive: 39.8 µM [inhibitor, partial curve]"}
{"smiles": "CC(C)C(OC(=O)CNC(=O)c1ccccc1)C(=O)Nc1cc(C(F)(F)F)ccc1Cl", "note": "(stereo unspecified)", "Potency": "inconclusive: 39.8 µM [inhibitor, single point]"}
{"smiles": "COc1cccc(C(Nc2ccccn2)c2c(NC(=O)c3ccco3)sc(C)c2C)c1", "note": "(stereo unspecified)", "Potency": "inconclusive: 31.6 µM [inhibitor, single point]"}
{"smiles": "O=C(Cn1c(-c2cccs2)cc2ccccc21)N1CCN(c2ccc(Cl)cc2)CC1", "activity change, negative = inhibition": "inactive: -6.6%"}
{"smiles": "CCc1ccc(C2NC(c3ccc(CC)cc3)C([N+](=O)[O-])C(C)(C)C2[N+](=O)[O-])cc1", "note": "(stereo unspecified)", "activity change, negative = inhibition": "inactive: -21.9%"}
{"smiles": "COc1ccccc1NC(=O)C(=O)NCC1COc2ccccc2O1", "note": "(stereo unspecified)", "activity change, negative = inhibition": "inactive: -12.7%"}
{"smiles": "COc1ccc(C2c3[nH]c4ccccc4c3CCN2Cc2ccoc2)c(F)c1", "note": "(stereo unspecified)", "Potency": "inconclusive: 50.1 µM [inhibitor, partial curve]"}
{"smiles": "CCn1c(CNC(=O)COc2ccc(C(C)C)cc2)nnc1SCC(=O)Nc1cc(F)ccc1C", "Potency": "active: 28.2 µM"}
{"smiles": "O=C1CCCC(O)=C1N=Nc1c(Cl)cc(C(F)(F)F)cc1Cl", "Potency": "inconclusive: 15.8 µM [inhibitor, full curve, poor fit]"}
{"smiles": "O=C(Nc1ccccc1)c1ccccc1Oc1ccc(C(F)(F)F)cc1[N+](=O)[O-]", "Potency": "inconclusive: 50.1 µM [inhibitor, single point]"}
{"smiles": "O=C(NC1CCCCCC1)C1CCN(C(=O)c2cccc(Cl)c2)CC1", "activity change, negative = inhibition": "inactive: 6.35%"}
{"smiles": "COC(=O)c1ccc(N2CCc3ccccc32)c([N+](=O)[O-])c1", "Potency": "active: 14.1 µM"}
{"smiles": "Cc1ccc(S(=O)(=O)N2CCN(C(=O)c3cccc(-n4cccc4)c3)CC2)cc1", "activity change, negative = inhibition": "inconclusive: -37.9% [inhibitor]"}
{"smiles": "Cc1cccc(OC(=O)Cn2c(C(F)(F)F)nc3ccccc32)c1", "Potency": "inconclusive: 11.2 µM [inhibitor, partial curve]"}
{"smiles": "CCCCn1nnnc1NCc1ccc(N2CCCC2)cc1", "Potency": "inconclusive: 79.4 µM [inhibitor, partial curve]"}
{"smiles": "CCN1C(=O)[C@H]2[C@@H](c3ccc(C)cc3)N3C(=O)N(c4cccc(F)c4)C(=O)[C@@]3(C)[C@H]2C1=O", "activity change, negative = inhibition": "inactive: -2.17%"}
{"smiles": "COc1cc(NC(=O)Nc2ccccc2OC)c(OC)cc1NC(=O)CN1CCCCC1", "Potency": "inconclusive: 44.7 µM [inhibitor, partial curve]"}
{"smiles": "Cc1c([C@H]2[C@@H](CC#N)C2(C)C)c2ccccc2n1C", "Potency": "inconclusive: 50.1 µM [inhibitor, partial curve]"}
{"smiles": "C=CCn1c(SCC(=O)Nc2ccccc2OC)nnc1-c1ccccn1", "Potency": "inconclusive: 28.2 µM [inhibitor, partial curve, poor fit]"}
{"smiles": "CCOc1ccccc1C1CC(=O)Nc2cc3c(cc21)OCCO3", "note": "(stereo unspecified)", "Potency": "inconclusive: 56.2 µM [inhibitor, partial curve]"}
{"smiles": "Cc1cc(/C=C2/C(=N)N3C(=NC2=O)SN=C3S(C)(=O)=O)c(C)n1-c1ccccc1F", "Potency": "inconclusive: 28.2 µM [inhibitor, partial curve]"}
{"smiles": "Cc1cc(C)cc(N=C2SC(CC(=O)Nc3ccccc3)C(=O)N2CCN2CCOCC2)c1", "note": "(stereo unspecified)", "Potency": "inconclusive: 50.1 µM [inhibitor, partial curve]"}
{"smiles": "Cn1c(SCc2ccc(F)cc2)nnc1-c1ccncc1", "activity change, negative = inhibition": "inactive: -2.9%"}
{"smiles": "Cc1ccc(CNC(=O)C(=O)Nc2nccs2)cc1", "activity change, negative = inhibition": "inactive: -26.6%"}
{"smiles": "Cc1ccc(CN(Cc2ccco2)C(=O)c2ccccc2Br)o1", "Potency": "inconclusive: 12.6 µM [inhibitor, full curve, poor fit]"}
{"smiles": "Nc1nc(SCC(=O)Nc2ccc(F)cc2)[nH]c(=O)c1NC(=O)c1ccc(F)c(F)c1", "activity change, negative = inhibition": "inactive: -3.47%"}
{"smiles": "COc1ccc(N2CCN(C(c3ccc4ncccc4c3)c3nnnn3C(C)(C)C)CC2)cc1", "note": "(stereo unspecified)", "Potency": "inconclusive: 56.2 µM [inhibitor, partial curve]"}
{"smiles": "Cc1ccc(-n2cnc3cc(C(=O)NC4CCCCCC4)ccc32)c(C)c1", "Potency": "inconclusive: 50.1 µM [inhibitor, partial curve, poor fit]"}
{"smiles": "COc1ccc(CC(C)N2CCN(c3cccc(C(F)(F)F)c3)CC2)cc1OC", "note": "(stereo unspecified)", "Potency": "inconclusive: 44.7 µM [inhibitor, full curve, poor fit]"}
{"smiles": "CCCCOc1ccc(N2C(=O)CC(N(CCc3ccccc3)C(=O)/C=C/C(=O)O)C2=O)cc1", "note": "(stereo unspecified)", "activity change, negative = inhibition": "inactive: -32.2%"}
{"smiles": "C/C=C/COC(=O)c1[nH]c2c(c1C)C(=O)CC(c1ccco1)C2", "note": "(stereo unspecified)", "Potency": "active: 50.1 µM"}
{"smiles": "Cc1cccc(C(=O)NNS(=O)(=O)c2ccccc2[N+](=O)[O-])c1", "Potency": "inconclusive: 15.8 µM [inhibitor, partial curve, poor fit]"}
{"smiles": "COC(=O)CSc1nc2sc3c(c2c(=O)n1-c1ccc(OC)cc1)CCN(C)C3", "activity change, negative = inhibition": "inactive: -25.2%"}
{"smiles": "CCc1ccc(Cn2nnc3c(=O)[nH]c(C4CCCN(C(=O)c5cccc(Cl)c5)C4)nc32)cc1", "note": "(stereo unspecified)", "Potency": "inconclusive: 79.4 µM [inhibitor, partial curve]"}
{"smiles": "COc1ccc(OCC(=O)N2c3ccccc3CCc3ccccc32)cc1", "activity change, negative = inhibition": "inactive: -15.2%"}
{"smiles": "CCOc1cc(C(C(=O)NCC2CCCO2)N(C(=O)Cn2nnc3ccccc32)c2cccc(OC)c2)ccc1O", "note": "(stereo unspecified)", "Potency": "inconclusive: 89.1 µM [inhibitor, single point]"}
